Source: PubChem BioAssay (NCATS)
The shares of active, inactive and inconclusive entries below differ from those in the screen. For some assays here: A potency beside an inconclusive call is a rough fit, not a confirmed value. Active and inactive are the calls of the source. The call rests on the fitted dose curve; in most records, active means well fitted curve in the direction sought with a large enough effect; inconclusive means small, poorly fitted or top-dose-only effect, or another doubt; inactive means no such curve, though single readings can be large; an effect the other way counts as inactive or inconclusive.

Key:
[1] = target: Phospholipid hydroperoxide glutathione peroxidase GPX4 (Homo sapiens) (UniProt P36969); assay: Primary qHTS Assay for Inhibitors of Recombinant Selenoprotein Glutathione Peroxidase 4 (GPX4) (AID 1845192); further: nearly all actives have a fitted effect of over 65% in size
Procedure, shortened: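 Steps: GPX4 plus compound, 30 min RT; add GR/GSH/NADPH master mix; start with cumene hydroperoxide; read 340/450 nm fluorescence at 0 and 15 min. Finals were 200 nM GPX4, 1 mM GSH, 0.5 mM CHP, 0.5 mM NADPH, 100 nM GR.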

[2] = Quantitative High-Throughput drug screen in 47 multiple myeloma cell lines against the NCATS MIPE library collection: FR4_PLB cell viability assay (AID 1918924; further: nearly all actives have a fitted effect of over 35% in size); conditions: FR4_PLB myeloma cells viability, CellTiter-Glo ATP, 48 h; viability (% of DMSO control): at 45.8 µM (top of the series)
Procedure, shortened: (§1)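 We plated 500 myeloma cells per well, pinned in MIPE 4.0 compounds, and incubated for 48 hours at 37C. ATP was then quantified with CellTiter-Glo, with DMSO and media-only wells defining 100% and 0%.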

[3] = Quantitative High-Throughput drug screen in 47 multiple myeloma cell lines against the NCATS MIPE library collection: EJM_DSMZ cell viability assay (AID 1918926; further: nearly all actives have a fitted effect of over 30% in size); conditions: EJM myeloma cell viability, CellTiter-Glo ATP, 48 h; viability, % of control: at 45.8 µM (top of the series)
Procedure, shortened: (§2)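 CellTiter-Glo ATP luminescence gave viability after 48 h compound treatment at 37C of 500 multiple myeloma cells per well. Normalisation used DMSO-only wells as 100% and media-only wells as 0% viability; primary qHTS of approved and investigational drugs.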

[4] = Quantitative High-Throughput drug screen in 47 multiple myeloma cell lines against the NCATS MIPE library collection: AMO1_DSMZ cell viability assay (AID 1918927; further: nearly all actives have a fitted effect of over 30% in size)
Procedure, shortened: as §2

[5] = Quantitative High-Throughput drug screen in 47 multiple myeloma cell lines against the NCATS MIPE library collection: ARD_JJKsccE7 cell viability assay (AID 1918929)
Procedure, shortened: as §2

[6] = Quantitative High-Throughput drug screen in 47 multiple myeloma cell lines against the NCATS MIPE library collection: Karpas620_DSMZ cell viability assay (AID 1918959); further: nearly all actives have a fitted effect of over 30% in size
Procedure, shortened: as §1

[7] = Quantitative High-Throughput drug screen in 47 multiple myeloma cell lines against the NCATS MIPE library collection: KMM1_JCRB cell viability assay (AID 1918960); conditions: KMM1 myeloma viability, CellTiter-Glo ATP luminescence, 48 h; viability (% of DMSO): at 45.8 µM (top of the series); further: nearly all actives have a fitted effect of over 30% in size
Procedure, shortened: (§3)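 Viability screen: myeloma cells (500/well) incubated 48 h at 37 °C, humidified 5% CO2, with pinned library compounds; CellTiter-Glo added, luminescence read; DMSO wells set 100%, medium-only wells 0%.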

[8] = Quantitative High-Throughput drug screen in 47 multiple myeloma cell lines against the NCATS MIPE library collection: Karpas417_ECACC cell viability assay (AID 1918961); conditions: Karpas417 myeloma viability, CellTiter-Glo ATP luminescence, 48 h; viability (% of DMSO): at 45.8 µM (top of the series) unless noted
Procedure, shortened: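 Viability readout: CellTiter-Glo luminescence following 5 min room-temperature incubation with reagent. Prior exposure: 48 h, 37C, humidified 5% CO2, 500 cells per well.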

[9] = target: Luciferin 4-monooxygenase (Photinus pyralis) (UniProt P08659); assay: Primary firefly luciferase (FLuc) qHTS assay for identification of artifact compounds. (AID 1845220); further: nearly all actives have a fitted effect of over 60% in size
Procedure, shortened: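 D-luciferin and ATP (10 uM each, final) in Tris acetate buffer pH 7.6 were incubated with compounds for 15 min at room temperature. The reaction was started with 10 nM Photinus pyralis luciferase and luminescence read after 5 min. Percent inhibition was fitted to a 4-parameter Hill equation.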

[10] = Primary redox qHTS assay for identification of artifact compounds. (AID 1845223)
Procedure, shortened: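 Redox-cycling detection via DTT (250 uM final) oxidation coupled to Amplex Red (25 uM)/HRP (250 mU/mL) in HBSS. 15 min preincubation plus 30 min after DTT, room temperature. Ex/Em 525/598 nm; 4-parameter Hill fit against DMSO and 10 uM DA3003.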

[11] = Quantitative High-Throughput drug screen in 47 multiple myeloma cell lines against the NCATS MIPE library collection: Delta47_JCRB cell viability assay (AID 1918925; further: nearly all actives have a fitted effect of over 45% in size); conditions: Delta47 myeloma viability, CellTiter-Glo ATP, 48 h; viability (% of DMSO): at 45.8 µM (top of the series) unless noted
Procedure, shortened: as §2

[12] = Quantitative High-Throughput drug screen in 47 multiple myeloma cell lines against the NCATS MIPE library collection: KHM11_PLB cell viability assay (AID 1918962); conditions: KHM11 myeloma cell viability, CellTiter-Glo ATP luminescence, 48 h; viability, % of DMSO control: at 45.8 µM (top of the series); further: nearly all actives have a fitted effect of over 35% in size
Procedure, shortened: as §1

[13] = Quantitative High-Throughput drug screen in 47 multiple myeloma cell lines against the NCATS MIPE library collection: ARP1_JJKsccF8 cell viability assay (AID 1918928; further: nearly all actives have a fitted effect of over 40% in size); conditions: ARP1 myeloma cells viability, CellTiter-Glo ATP, 48 h; viability: at 45.8 µM (top of the series)
Procedure, shortened: as §3
Potency means the concentration at half of the fitted maximal effect; tags describe the fitted curve by direction and shape.

UniProt P36969, sequence (P36969 whole entry, looked up): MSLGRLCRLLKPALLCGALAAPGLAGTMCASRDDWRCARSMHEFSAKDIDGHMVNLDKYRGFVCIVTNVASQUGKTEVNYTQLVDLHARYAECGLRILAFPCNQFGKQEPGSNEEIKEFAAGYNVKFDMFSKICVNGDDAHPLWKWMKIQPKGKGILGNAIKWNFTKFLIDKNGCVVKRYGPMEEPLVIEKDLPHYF

COc1ccc(-c2c(-c3ccc(O)cc3O)n[nH]c2C)cc1
inconclusive: Potency [1] 32.1 µM [inhibitor, single point] | Potency [2] 67.9 µM [cytotoxic, partial curve, poor fit] | Potency [3] 42.9 µM [cytotoxic, partial curve, poor fit] | Potency [5] 24.1 µM [cytotoxic, partial curve] | Potency [7] 34 µM [cytotoxic, partial curve]
active: Potency [4] 42.9 µM | Potency [6] 42.9 µM | viability (% of DMSO) [8] 34.5% [at 92.2 µM]

Cc1coc2c1C(=O)C(=O)c1c-2ccc2c1CCCC2(C)C
inconclusive: Potency [1] 28.6 µM [inhibitor, partial curve, poor fit] | Potency [9] 16.9 µM [inhibitor, partial curve] | Potency [3] 14.8 µM [cytotoxic, partial curve, poor fit] | Potency [5] 0.0118 µM [cytotoxic, full curve, poor fit] | Potency [7] 0.166 µM [cytotoxic, full curve, poor fit] | Potency [8] 2.96 µM [cytotoxic, full curve, poor fit]
active: Potency [10] 9.47 µM | Potency [11] 8.33 µM

O=C(CCc1ccc(O)cc1)c1c(O)cc(O)cc1O
active: Potency [11] 0.118 µM | Potency [6] 1.32 µM | Potency [8] 0.132 µM | Potency [12] 0.059 µM
inconclusive: Potency [1] 22.7 µM [inhibitor, single point] | Potency [2] 1.18 µM [cytotoxic, full curve] | Potency [3] 0.0166 µM [cytotoxic, full curve] | Potency [7] 1.66 µM [cytotoxic, full curve]

CCOC(=O)c1c(C)n(C)c2ccc(O)cc12
inactive: Potency [2] | Potency [4] | Potency [5]
inconclusive: Potency [1] 32.1 µM [inhibitor, single point] | Potency [11] 1.05 µM [cytotoxic, full curve, poor fit] | Potency [13] 4.69 µM [cytotoxic, partial curve, poor fit] | Potency [8] 0.0469 µM [cytotoxic, full curve, poor fit] | Potency [12] 10.5 µM [cytotoxic, partial curve, poor fit]
